Some of the results follow.
Each molecule was assayed on T1, C. trachomatis L2/434/Bu expressing GFP (CTL2-GFP). Conditions: total inclusion area; 28.5 h, 10 µM; inhibitor.
T1 construct: L2/434/Bu GFP intracellular growth in HeLa cells
Set-up: species or system HeLa; C. trachomatis total inclusion area by high-content imaging, normalised to DMSO
Procedure, shortened: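 High-content images of fixed, Hoechst-stained infected cultures supply inclusion area and count (growth) plus nuclei number (viability), complementing bulk GFP/resorufin fluorescence. MIC determination is unchanged from the primary assay.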

Structure (SMILES) | % of control remaining
CC(C)(C)SCCNC(=S)NCCO [CBK020686] | 38.964
CN(C)CCN(C)c1cncc(-c2ccc3ccccc3c2)n1 [CBK037146] | 103.011
CCN(CC)CCNC(=O)c1cc(=O)c2ccccc2o1 [CBK010691] | 98.438
CNC(=O)C1(Cc2ccccc2-c2ccccc2)CCN(C(=O)CCC2CCCC2)CC1 [CBK285696] | 114.346
COc1ccc(O)c(C(=O)c2cnn(C(=O)c3ccc(C)cc3)c2)c1 [CBK297546] | 106.171
Cc1ccc(S(=O)(=O)NC2CCC(C(=O)O)CC2)cc1 (stereo not drawn) [CBK286929] | 98.1376
Cc1cc(C)n(CCC(=O)N2CCCCC2C(=O)O)n1 (stereo not drawn) [CBK304678] | 43.2034
CC1=C[C@@H](CNS(=O)(=O)c2ccccc2)[C@H](C(C)C)C[C@H]1CC(=O)N1CCCC1 [CBK289054] | 81.4683
CCN1CCN(C(=O)c2cccn2C)CC1 [CBK200248] | 90.0641
O=C(O)c1cc(NC(=O)C2CC2)cc(C(=O)O)c1 [CBK268564] | 102.129
O=C(CCC(=O)Nc1ccccc1)N/N=C/c1ccco1 [CBK261968] | 103.129
O=c1nc(-c2ccco2)oc2ccccc12 [CBK152421] | 66.2033
O=C(CC1(O)C(=O)N(Cc2ccc3c(c2)OCO3)c2ccccc21)c1cccnc1 (stereo not drawn) [CBK269633] | 77.9589
CN1CCN(C(=O)c2ccccc2NC(=O)NC2CCCCC2)CC1 [CBK269771] | 101.785
O=S(=O)(Nc1cccc(C(F)(F)F)c1)c1ccc(OC(F)(F)F)cc1 [CBK043554] | 70.2781
C=CCn1c(S)nnc1CCSCc1ccccc1 [CBK268849] | 96.0722
CC(C)NC(=O)N1Cc2nc[nH]c2C[C@H]1C(=O)NCc1ccco1 [CBK288974] | 96.558
CN(C)c1cccc(C(=O)Nc2nc3ccc(S(N)(=O)=O)cc3s2)c1 [CBK287602] | 89.4278
Cc1cccnc1C(c1ccc(F)cc1)N(C)C(=O)C1CCN(CCc2ccc(Br)cc2)CC1 (stereo not drawn) [CBK148397] | 75.1138
COc1ccc(NC(=O)c2cnc(-c3cccc(C)c3)c(-c3ccco3)c2)cc1 [CBK037491] | 64.2756
CCc1c(C(=O)NCc2cc(C3CC3)[nH]n2)[nH]c2ccc(F)cc12 [CBK282501] | 103.692
Cc1cccc(-c2ccc(CC3(C(N)=O)CCN(C(=O)c4ccccc4)CC3)cc2)c1 [CBK285778] | 84.8797
COc1ccc([C@H]2CN(C(=O)c3ccccc3)[C@@H]3CCN(Cc4ccsc4)C[C@H]23)cc1 [CBK285585] | 80.5027
CC1CCN(S(=O)(=O)c2ccc(NC(=O)c3cccc(NC(=O)C(C)C)c3)cc2)CC1 [CBK265653] | 91.3816
COc1ccc(C2C(C(=O)O)c3ccccc3C(=O)N2C)cc1 (stereo not drawn) [CBK286847] | 106.973
Cn1ncc2c1C(=O)NC1c3ccccc3C(=O)N21 (stereo not drawn) [CBK113668] | 104.531

Structure (SMILES) | % of control remaining
COc1ccc(-n2c(SCC(=O)Nc3cccc(C(C)=O)c3)nc3sc(C)c(C)c3c2=O)cc1 [CBK091806] | 93.3868
Cc1cccc(C(=O)NCc2nnc(SCC(=O)N3CCOCC3)n2C)c1 [CBK269723] | 100.522
Cc1cc(C(=O)N2CCCCCC2c2c(Cl)cnn2C)on1 (stereo not drawn) [CBK284916] | 93.4415
CCCC(CCC)C(=O)Nc1ccc(NC(=O)c2ccco2)c(C)c1 [CBK058263] | 73.2923
Nc1ccc(C(=O)Nc2nc3ccccc3s2)cc1 [CBK287608] | 75.0096
CCCC(=O)N1CCCC(c2nnc(-c3cccs3)o2)C1 (stereo not drawn) [CBK283057] | 99.9528
O=C(Nc1nnc(-c2ccc3c(c2)OCCO3)o1)c1ccc2c(c1)OCCO2 [CBK287403] | 111.627
Cc1cc2oc(=O)cc(C)c2cc1NC(=O)c1ccccc1C(=O)O [CBK286572] | 99.9439
OC(CSc1ccc(F)cc1)CN1CCN(c2ccc(C(F)(F)F)cn2)CC1 (stereo not drawn) [CBK074688] | 97.8275
COc1ccc(C(C)C)cc1-c1ccnc2[nH]c(=O)ccc12 [CBK073735] | 101.888
Cc1cc(COc2nccnc2OC2CCN(Cc3ccc(Cl)cc3)CC2)no1 [CBK082949T] | 100.813
NC(=O)c1cc(Cc2ccccc2)sc1NC(=O)c1cccnc1 [CBK268168] | 96.6337
CC(C)Oc1cc(NC(=O)CS(=O)(=O)CC(=O)N(C)C)c(Cl)cc1Cl [CBK018112] | 102.056
O=C(CSc1nnc(-c2cc(Br)ccc2O)n1-c1ccccc1)N1CCc2ccccc21 [CBK268346] | 113.419
CCN(CC)CCOC(=O)NS(=O)(=O)c1ccc(Cl)cc1 [CBK288510] | 104.452
CCc1nn(CC(=O)N(CC)CC)c(=O)c2cc3sc(C)cc3n12 [CBK284121] | 106.707
Cn1c(=O)n(CC(=O)NCc2ccccc2F)c2cccnc21 [CBK283909] | 72.8433
COc1cc(OC)nc(C(NC(=O)C2CCN(Cc3cccn3C)CC2)c2ccc(F)cc2)n1 (stereo not drawn) [CBK148170] | 92.7771
CSCCC(NC(=O)CCc1ccccc1)c1nnc2ccccn12 (stereo not drawn) [CBK304350] | 56.7358
c1ccc(CNc2nc(-c3ccncc3)cs2)cc1 [CBK058609] | 54.3495
CC(=O)Nc1cccc(-c2nccnc2NCc2ccc3c(c2)OCO3)c1 [CBK037972] | 100.668
OCC(O)/C=N/Nc1nc(Nc2ccccc2)nc(N2CCCCC2)n1 (stereo not drawn) [CBK262042] | 87.1901
CC(=O)N1CCC(NC[C@H]2C[C@@H]3CCN2C[C@@H]3c2cc(C3CCCC3)nc(C)n2)CC1 [CBK289129] | 94.8399
FC(F)(F)c1nc2ccccc2nc1SC1CCCCC1 [CBK107205] | 57.3313
CC(=O)c1cc2cnccc2[nH]c1=O [CBK089771] | 54.8074

From article PMC12040169 (PLOS Biology, 2025)
